From paper PMC4989220
Results are given in words; binding and its absence hold for the method and conditions named. Binding seen in cells or lysates may run through a third protein. Some binding calls cover weakened binding; strength is not graded here. For part of these data: Where a sequence is shown, tags or fusion partners need not be part of it. One block for each substance: values may come before it.

Protein sequences, listed by entry. Tags and fused reporters are not part of them.
UniProt Q14789: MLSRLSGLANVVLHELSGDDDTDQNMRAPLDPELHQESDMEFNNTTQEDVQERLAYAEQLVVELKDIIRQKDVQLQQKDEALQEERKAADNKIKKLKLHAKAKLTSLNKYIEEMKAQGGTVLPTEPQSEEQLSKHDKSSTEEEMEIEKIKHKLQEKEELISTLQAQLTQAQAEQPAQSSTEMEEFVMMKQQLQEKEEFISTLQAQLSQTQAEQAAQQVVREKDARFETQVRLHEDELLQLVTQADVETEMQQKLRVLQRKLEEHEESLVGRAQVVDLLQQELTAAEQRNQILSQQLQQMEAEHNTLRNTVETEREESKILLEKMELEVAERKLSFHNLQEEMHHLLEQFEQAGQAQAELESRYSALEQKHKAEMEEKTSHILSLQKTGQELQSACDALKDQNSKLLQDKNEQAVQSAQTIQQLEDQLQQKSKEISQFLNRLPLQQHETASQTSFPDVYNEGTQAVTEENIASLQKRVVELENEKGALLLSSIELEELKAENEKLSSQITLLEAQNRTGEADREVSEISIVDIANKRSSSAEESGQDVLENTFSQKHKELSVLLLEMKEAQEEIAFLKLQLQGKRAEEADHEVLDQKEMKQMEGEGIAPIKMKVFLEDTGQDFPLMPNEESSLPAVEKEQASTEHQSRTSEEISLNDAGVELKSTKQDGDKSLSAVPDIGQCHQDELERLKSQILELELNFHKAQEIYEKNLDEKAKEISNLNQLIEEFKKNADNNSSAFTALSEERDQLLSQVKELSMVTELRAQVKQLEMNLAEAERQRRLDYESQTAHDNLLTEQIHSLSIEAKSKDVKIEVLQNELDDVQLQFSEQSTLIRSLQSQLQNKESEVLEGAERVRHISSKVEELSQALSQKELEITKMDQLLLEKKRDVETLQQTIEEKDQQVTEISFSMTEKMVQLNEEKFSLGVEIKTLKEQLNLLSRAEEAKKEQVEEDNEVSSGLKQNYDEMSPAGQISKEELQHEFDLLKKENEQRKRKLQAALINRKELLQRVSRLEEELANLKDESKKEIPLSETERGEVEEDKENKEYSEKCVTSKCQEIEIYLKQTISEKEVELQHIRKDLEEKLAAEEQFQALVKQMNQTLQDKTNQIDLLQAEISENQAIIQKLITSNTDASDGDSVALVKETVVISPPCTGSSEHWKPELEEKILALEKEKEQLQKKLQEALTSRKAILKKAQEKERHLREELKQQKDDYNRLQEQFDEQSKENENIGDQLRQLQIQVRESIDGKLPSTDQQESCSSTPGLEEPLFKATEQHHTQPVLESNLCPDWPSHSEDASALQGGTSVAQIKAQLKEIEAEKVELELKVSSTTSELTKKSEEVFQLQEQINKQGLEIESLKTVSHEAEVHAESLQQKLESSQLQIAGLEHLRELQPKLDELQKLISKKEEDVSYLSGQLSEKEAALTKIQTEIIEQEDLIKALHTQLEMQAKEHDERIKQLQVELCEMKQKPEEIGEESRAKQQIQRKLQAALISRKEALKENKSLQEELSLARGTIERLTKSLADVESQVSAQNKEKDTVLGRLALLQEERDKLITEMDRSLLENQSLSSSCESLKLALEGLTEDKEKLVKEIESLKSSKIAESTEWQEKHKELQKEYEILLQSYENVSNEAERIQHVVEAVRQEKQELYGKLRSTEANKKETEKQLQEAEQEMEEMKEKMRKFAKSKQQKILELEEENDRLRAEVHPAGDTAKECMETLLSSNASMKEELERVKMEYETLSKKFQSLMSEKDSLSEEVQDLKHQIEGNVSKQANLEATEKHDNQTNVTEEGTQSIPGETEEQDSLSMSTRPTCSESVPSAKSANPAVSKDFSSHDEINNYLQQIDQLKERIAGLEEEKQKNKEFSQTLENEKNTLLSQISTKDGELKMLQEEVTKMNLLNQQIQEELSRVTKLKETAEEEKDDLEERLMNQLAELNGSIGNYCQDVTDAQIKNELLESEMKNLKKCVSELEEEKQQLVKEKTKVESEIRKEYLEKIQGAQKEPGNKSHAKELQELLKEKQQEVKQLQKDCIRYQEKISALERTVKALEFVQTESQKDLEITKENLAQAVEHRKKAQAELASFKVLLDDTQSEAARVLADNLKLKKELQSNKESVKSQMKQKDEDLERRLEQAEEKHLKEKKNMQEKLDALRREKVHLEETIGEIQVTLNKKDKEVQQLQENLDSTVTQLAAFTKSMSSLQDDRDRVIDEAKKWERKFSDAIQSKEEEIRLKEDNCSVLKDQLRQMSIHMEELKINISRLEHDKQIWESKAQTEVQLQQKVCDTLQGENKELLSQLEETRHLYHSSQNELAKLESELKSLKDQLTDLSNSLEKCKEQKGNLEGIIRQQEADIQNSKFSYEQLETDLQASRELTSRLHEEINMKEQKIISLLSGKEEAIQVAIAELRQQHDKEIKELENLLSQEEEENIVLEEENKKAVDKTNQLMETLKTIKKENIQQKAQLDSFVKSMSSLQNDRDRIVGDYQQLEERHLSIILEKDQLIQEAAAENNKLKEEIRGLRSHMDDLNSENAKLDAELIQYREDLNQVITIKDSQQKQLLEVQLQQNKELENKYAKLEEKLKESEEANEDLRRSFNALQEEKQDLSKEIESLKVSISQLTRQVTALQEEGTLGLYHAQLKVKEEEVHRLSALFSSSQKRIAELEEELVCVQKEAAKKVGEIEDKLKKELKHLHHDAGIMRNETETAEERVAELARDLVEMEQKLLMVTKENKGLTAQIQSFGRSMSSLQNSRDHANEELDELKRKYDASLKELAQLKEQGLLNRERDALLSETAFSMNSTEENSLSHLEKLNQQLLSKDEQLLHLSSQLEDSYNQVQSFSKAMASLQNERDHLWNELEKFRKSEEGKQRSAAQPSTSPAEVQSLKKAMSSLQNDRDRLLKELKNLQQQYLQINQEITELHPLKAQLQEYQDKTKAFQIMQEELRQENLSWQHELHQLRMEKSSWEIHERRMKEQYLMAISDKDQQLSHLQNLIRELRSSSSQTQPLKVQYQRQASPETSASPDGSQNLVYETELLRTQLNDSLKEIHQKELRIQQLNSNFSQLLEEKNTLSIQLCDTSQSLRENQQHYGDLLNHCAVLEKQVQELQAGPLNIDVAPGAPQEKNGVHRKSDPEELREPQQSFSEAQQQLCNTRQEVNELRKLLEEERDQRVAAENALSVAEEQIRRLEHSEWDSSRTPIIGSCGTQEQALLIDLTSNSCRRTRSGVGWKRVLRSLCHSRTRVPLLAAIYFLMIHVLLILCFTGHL
UniProt P35579: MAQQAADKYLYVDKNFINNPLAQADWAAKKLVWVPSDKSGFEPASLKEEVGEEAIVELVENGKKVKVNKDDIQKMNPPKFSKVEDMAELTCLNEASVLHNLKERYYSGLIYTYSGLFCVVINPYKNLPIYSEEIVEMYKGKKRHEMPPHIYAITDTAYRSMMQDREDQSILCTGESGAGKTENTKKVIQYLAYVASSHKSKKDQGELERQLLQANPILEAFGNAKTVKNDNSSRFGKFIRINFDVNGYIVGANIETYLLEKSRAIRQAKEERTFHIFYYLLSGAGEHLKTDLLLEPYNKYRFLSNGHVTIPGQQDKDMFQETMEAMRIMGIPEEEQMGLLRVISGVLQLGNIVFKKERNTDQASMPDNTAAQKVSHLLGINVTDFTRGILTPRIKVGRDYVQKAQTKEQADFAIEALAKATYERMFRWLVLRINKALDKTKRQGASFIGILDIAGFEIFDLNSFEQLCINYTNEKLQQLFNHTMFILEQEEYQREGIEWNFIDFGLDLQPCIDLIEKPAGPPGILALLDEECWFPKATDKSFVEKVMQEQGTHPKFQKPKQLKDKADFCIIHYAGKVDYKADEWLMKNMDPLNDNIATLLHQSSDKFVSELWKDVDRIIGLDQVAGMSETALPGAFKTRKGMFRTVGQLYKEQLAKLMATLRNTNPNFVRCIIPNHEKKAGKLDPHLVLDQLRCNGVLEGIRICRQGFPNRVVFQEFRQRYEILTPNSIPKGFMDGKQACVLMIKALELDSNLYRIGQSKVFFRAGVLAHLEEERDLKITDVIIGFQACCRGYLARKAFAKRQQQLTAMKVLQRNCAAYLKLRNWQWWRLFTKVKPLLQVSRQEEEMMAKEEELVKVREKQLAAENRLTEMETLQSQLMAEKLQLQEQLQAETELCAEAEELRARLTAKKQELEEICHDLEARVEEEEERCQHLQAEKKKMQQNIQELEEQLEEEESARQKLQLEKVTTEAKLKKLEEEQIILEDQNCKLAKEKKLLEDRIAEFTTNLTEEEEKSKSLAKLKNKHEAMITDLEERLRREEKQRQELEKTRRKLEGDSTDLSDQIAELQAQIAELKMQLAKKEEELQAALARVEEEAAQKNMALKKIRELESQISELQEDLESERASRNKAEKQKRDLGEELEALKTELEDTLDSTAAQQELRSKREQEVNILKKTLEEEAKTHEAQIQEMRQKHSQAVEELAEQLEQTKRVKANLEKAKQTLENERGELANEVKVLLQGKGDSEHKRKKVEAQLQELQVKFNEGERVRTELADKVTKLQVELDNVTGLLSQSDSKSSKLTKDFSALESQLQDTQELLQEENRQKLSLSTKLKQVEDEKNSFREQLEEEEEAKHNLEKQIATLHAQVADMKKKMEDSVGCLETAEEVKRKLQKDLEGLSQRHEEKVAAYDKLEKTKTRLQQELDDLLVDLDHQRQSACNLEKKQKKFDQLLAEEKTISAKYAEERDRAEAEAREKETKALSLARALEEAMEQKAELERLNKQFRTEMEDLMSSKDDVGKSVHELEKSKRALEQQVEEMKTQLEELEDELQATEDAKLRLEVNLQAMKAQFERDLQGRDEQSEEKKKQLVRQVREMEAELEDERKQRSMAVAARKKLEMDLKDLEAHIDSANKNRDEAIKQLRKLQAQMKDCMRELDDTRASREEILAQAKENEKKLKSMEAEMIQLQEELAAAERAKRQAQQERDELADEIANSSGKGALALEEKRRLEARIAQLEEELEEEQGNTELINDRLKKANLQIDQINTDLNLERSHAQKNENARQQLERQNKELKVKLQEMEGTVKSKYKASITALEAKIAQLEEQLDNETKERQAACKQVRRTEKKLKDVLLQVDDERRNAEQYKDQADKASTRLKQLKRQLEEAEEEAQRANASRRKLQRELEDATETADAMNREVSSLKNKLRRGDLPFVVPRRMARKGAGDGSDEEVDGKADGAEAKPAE
UniProt P20340: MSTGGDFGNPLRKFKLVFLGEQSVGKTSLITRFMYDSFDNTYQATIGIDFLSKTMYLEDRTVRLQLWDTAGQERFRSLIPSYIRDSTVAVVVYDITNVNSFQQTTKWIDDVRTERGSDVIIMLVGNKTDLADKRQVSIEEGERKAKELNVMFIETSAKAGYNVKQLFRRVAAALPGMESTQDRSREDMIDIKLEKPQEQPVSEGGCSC

Columns and labels:
[1] = target: giantin (human (endogenous in VA-13, HepG2-derived)) (UniProt Q14789); assay: pull-down; in vitro Rab6a capturing: anti-giantin Ab on Dynabeads M-270 Epoxy, incubated with lysate of VA-13 cells overexpressing Rab6(T27N) (4 °C, 12 h), then active Rab6a protein (5 μg, 4 °C, 12 h), washed in PBS; Western blot for giantin and Rab6a; only the binder purified
[2] = target: non-muscle Myosin IIA (NMIIA) heavy chain phosphorylated at S1943 (human (endogenous in VA-13, HepG2-derived)) (UniProt P35579); assay: co-IP; IP with anti-NMIIA-P-S1943 Ab from lysate of VA-13 cells treated with GOLGB1 (giantin) siRNAs; Western blot with anti-Rab6a Ab; input normalized by Rab6a
[3] = target: non-muscle Myosin IIA (NMIIA) heavy chain phosphorylated at S1943 (human (endogenous in VA-13, HepG2-derived)) (UniProt P35579); assay: condition: only cells treated with scrambled siRNA (giantin not knocked down); co-IP; IP with anti-NMIIA-P-S1943 Ab from lysate of VA-13 cells treated with scrambled siRNA; Western blot with anti-Rab6a Ab; input normalized by Rab6a
[4] = target: Rab6a GTPase (human (endogenous in VA-13, HepG2-derived)) (UniProt P20340); assay: co-IP; IP with anti-Rab6a Ab from lysate of control (untreated) VA-13 cells; Pierce Co-Immunoprecipitation Kit; Western blot; input normalized by NMIIA-P-S1943 or giantin
[5] = target: T1, β-galactoside α-2,3-sialyltransferase-1 (ST3Gal1) (human (endogenous in VA-13, HepG2-derived)) (UniProt Q11201); assay: co-IP; IP with anti-ST3Gal1 Ab from lysate of control or EtOH-treated VA-13 cells; Western blot for NMIIA-P-S1943 and ST3Gal1
T1 sequence: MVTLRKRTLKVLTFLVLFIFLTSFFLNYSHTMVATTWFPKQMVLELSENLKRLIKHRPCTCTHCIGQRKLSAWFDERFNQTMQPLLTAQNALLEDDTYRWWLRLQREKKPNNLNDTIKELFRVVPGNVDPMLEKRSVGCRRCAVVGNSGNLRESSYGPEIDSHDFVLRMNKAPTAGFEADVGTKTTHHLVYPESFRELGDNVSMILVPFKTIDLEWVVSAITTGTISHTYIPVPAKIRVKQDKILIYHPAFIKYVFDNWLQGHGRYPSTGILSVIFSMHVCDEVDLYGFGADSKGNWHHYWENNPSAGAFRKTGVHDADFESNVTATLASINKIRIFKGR

[6] = target: Rab6a GTPase (human (endogenous in VA-13, HepG2-derived)) (UniProt P20340); assay: co-IP; IP with anti-Rab6a Ab from lysate of VA-13 cells treated with 35 mM EtOH for 72 h; Pierce Co-Immunoprecipitation Kit; Western blot; input normalized by NMIIA-P-S1943 or giantin
[7] = target: Rab6a GTPase (human (endogenous in VA-13, HepG2-derived)) (UniProt P20340); assay: proximity ligation; Duolink in situ PLA in control VA-13 cells and hepatocytes from control rats; mouse anti-giantin + rabbit anti-Rab6a, or mouse anti-Rab6a + rabbit anti-NMIIA-P-S1943; cells with more than one red spot counted
[8] = target: T2, Control peptide Biotin-…; assay: pull-down; N-terminally biotinylated peptides (20 μl, 0.1 mg/ml in 25% acetic acid) mixed with 20-40 μl lysate of EtOH-treated VA-13 cells, 37 °C 1 h, captured on Dynabeads M-280 Streptavidin; Western blot with anti-NMIIA-P-S1943 Ab; only the target purified
T2 sequence (peptide, biotin on the N-terminus): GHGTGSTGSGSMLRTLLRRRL

[9] = target: T3, core 2 N-acetylglucosaminyltransferase-1 (C2GnT1) cytoplasmic tail peptide (human); assay: as above
T3 sequence (peptide, biotin on the N-terminus): MLRTLLRRRL

[10] = target: T4, polypeptide N-acetylgalactosaminyltransferase 2 (ppGalNAcT2) cytoplasmic tail peptide (human); assay: as above
T4 sequence (peptide, biotin on the N-terminus): AGSMRRRSRM

[11] = target: T5, α-mannosidase II (Man-II) cytoplasmic tail peptide (human); assay: as above
T5 sequence (peptide, biotin on the N-terminus): AGSMKLSRQ

[12] = target: T6, β-galactoside α-2,3-sialyltransferase-1 (ST3Gal1) cytoplasmic tail peptide (human); assay: as above
T6 sequence (peptide, biotin on the N-terminus): AGSMVTLRKRTLKV

[13] = target: T7, β1,3-N-acetylglucosaminyltransferase 6 (core 3 synthase) cytoplasmic tail peptide (human); assay: as above
T7 sequence (peptide, biotin on the N-terminus): AGSMAFPCRRSLTAKTL

[14] = target: Active human Rab6a full length protein (human) (UniProt P20340); assay: pull-down; in vitro Rab6a capturing: beads with anti-giantin Ab-giantin-active Rab6a incubated at 4 °C for 12 h with lysate of EtOH-treated cells transfected with Rab6(T27N) (holds NMIIA-P-S1943) or with Rab6(T27N) plus NMIIA siRNA (lacks it); Rab6a left on the beads seen by Western blot; only the target purified

- binding [1]: binds
Substance: Active human Rab6a full length protein (from UniProt P20340 1-208)

- binding [2]: binds
- binding [3]: no binding
Substance: Rab6a GTPase (from UniProt P20340 1-208)

- binding [4]: binds
Substance: giantin (from UniProt Q14789 1-3259)

- binding [5]: binds
- binding [6]: binds
- binding [7]: binds weakly
- binding [8]: no binding
- binding [9]: binds
- binding [10]: binds
- binding [11]: binds
- binding [12]: binds
- binding [13]: binds
- binding [14]: binds
Substance: non-muscle Myosin IIA (NMIIA) heavy chain phosphorylated at S1943 (from UniProt P35579 1-1960)
- binding [4]: no binding (condition: control cells without EtOH)
